Results taken from article PMC4336329 (PLoS ONE, 2015).
In all, about 310,000 compounds went through this assay and about 2,200 (0.71%) showed an effect of 50% or more. Effects have a minus sign here. This is one part of the list.

Molecular target: human ether-à-go-go-related gene (hERG) potassium channel (human, UniProt Q12809)
Test: primary screen, population patch clamp on CHO cells stably expressing hERG

Sequence of human ether-à-go-go-related gene (hERG) potassium channel (Q12809 whole entry, looked up): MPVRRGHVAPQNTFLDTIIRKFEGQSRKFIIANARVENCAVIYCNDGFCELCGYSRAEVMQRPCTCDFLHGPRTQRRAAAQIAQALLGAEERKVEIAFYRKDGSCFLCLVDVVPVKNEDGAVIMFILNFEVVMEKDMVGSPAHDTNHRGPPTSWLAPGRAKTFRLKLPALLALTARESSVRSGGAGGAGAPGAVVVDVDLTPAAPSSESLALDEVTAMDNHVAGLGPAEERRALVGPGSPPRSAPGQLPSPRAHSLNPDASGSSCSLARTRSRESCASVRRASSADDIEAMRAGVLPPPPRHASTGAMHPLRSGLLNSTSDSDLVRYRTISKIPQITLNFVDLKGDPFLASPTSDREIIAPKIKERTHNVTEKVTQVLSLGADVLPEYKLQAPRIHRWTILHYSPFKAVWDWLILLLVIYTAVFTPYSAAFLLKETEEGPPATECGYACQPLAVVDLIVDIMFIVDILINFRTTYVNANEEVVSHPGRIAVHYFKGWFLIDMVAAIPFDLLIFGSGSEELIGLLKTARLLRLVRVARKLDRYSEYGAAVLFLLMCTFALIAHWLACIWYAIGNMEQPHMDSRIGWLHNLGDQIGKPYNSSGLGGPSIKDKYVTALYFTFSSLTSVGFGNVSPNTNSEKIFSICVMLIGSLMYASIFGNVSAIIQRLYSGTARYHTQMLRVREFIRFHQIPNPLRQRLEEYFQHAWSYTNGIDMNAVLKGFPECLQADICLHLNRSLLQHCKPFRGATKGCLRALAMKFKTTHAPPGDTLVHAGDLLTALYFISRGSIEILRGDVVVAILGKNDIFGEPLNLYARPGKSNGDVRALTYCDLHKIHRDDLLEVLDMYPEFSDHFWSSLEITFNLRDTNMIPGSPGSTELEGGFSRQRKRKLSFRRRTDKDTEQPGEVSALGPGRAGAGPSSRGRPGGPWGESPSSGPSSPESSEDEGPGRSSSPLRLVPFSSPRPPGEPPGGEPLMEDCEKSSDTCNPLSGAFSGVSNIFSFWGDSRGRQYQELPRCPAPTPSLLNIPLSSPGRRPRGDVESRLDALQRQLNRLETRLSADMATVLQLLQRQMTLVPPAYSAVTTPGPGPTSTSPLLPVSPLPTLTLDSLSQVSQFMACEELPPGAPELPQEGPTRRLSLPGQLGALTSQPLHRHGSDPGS

SMILES	hERG current change (%, negative = inhibition) at 1uM
Cc1nn(CC(=O)NCCCc2ccccc2)c(C)c1[N+](=O)[O-]	5.66%
CCc1nc2ccccc2c(=O)n1/N=C/c1ccc(OC)cc1	3.37%
O=C(CN1C(=O)NC2(CCCC2)C1=O)Nc1nc(-c2ccc(F)cc2)cs1	8.2%
CC(C)(C)c1ccc(CNc2cc(N3CCOCC3)ccc2[N+](=O)[O-])cc1	19.2%
CC1CCCN(C(=O)CN2C3CCC2CC(O)(c2ccc(F)cc2)C3)C1 (stereo not drawn)	9.73%
COc1ccc(OC(=O)COc2ccc(C)cc2)cc1	8.57%
CCOC(=O)c1ccc(NC(=O)CC2SC3=NCCN3C2=O)cc1 (stereo not drawn)	13.5%
CCc1cc(=O)oc2cc(OCC(=O)NC3CC(C)(C)NC(C)(C)C3)ccc12	17.1%
Cc1ccc(NC(=S)N(CCCN(C)C)Cc2cc3cc4c(cc3[nH]c2=O)OCO4)c(C)c1	2.5%
CN1C(C(=O)NCc2cccc(C(F)(F)F)c2)CC2Cn3c(nc4cc(Cl)c(Cl)cc43)C21 (stereo not drawn)	11.6%
CN1CCN(C(=O)c2ccccc2N(Cc2ccccc2)S(C)(=O)=O)CC1	7.07%
CCN(c1ccccc1)S(=O)(=O)c1ccc2c(c1)CCCN2C(C)=O	13.9%
Cc1[nH]c2ccccc2c1/C=N/NC(=O)CNC(=O)c1ccccc1	-6.14%
CC(=O)Nc1nc2cc(C(N)=O)ccc2s1	-0.145%
CSC1=NCCN1C(=O)COc1ccc2ccccc2c1	13.1%
CNc1nc(C)nc(-n2nc(C)cc2C)n1	9.5%
CCCCOc1ccc(-c2nc(SCC(N)=O)n[nH]2)cc1	3.92%
O=C(Cc1cccc2ccccc12)N1CCN(c2ncccn2)CC1	1.79%
O=C(Cc1ccccc1)N1CCN(CC2CC=CCC2)CC1 (stereo not drawn)	8.9%
O=C(NCCN1CCN(c2ccccc2)CC1)C1CCN(S(=O)(=O)c2cccc3nonc23)CC1	2.62%
O/N=C/c1ccccc1Oc1ccc(Cl)cc1	10.1%
CCNc1c(NC(C)=O)c(=O)oc2ccccc12	18.5%
O=C(NCc1ccc(F)cc1)C1CCCN(C(=O)Nc2ccccc2)C1 (stereo not drawn)	4.92%

SMILES	hERG current change (%, negative = inhibition) at 1uM
Cc1c(CN2CCc3c([nH]c4ccccc34)C2C2CCCCC2)cnn1C (stereo not drawn)	1.51%
CC(C)(C)c1ccc(C(=O)NC(Cc2ccccc2)C(=O)O)cc1 (stereo not drawn)	-11.4%
Cc1cccc(CC(=O)c2c[nH]c3ccccc23)c1	11.8%
CCCCn1c(CN2CCN(C(=O)OCC)CC2)nc2c1c(=O)n(C)c(=O)n2C	1.39%
Cn1c(SCc2nc(-c3ccc(Cl)cc3)no2)nnc1-c1ccco1	-11.5%
O=C1C(=O)N(CCN2CCCCC2)c2ccccc21	2.06%
COCc1cc(Sc2ccc(Cl)cc2Cl)nc(-c2ccccc2)n1	15.7%
Cc1cc([N+](=O)[O-])nn1CC(=O)N1CCCc2ccccc21	16.8%
Cc1ccccc1Cn1nnc(-c2ccc(C(=O)O)cc2)n1	16.2%
Cc1csc(NC(=O)C2CC(=O)N(c3ccc(C)c(C)c3)C2)n1 (stereo not drawn)	6.44%
CNc1nnc(-c2ccncc2)s1	5.14%
Cc1cc(C)n(C(=O)CCNC(=O)c2ccccc2Cl)n1	11.7%
Cc1sc[n+](CC(=O)c2ccc(Br)cc2)c1C.[Br-]	2.98%
CC(C)Oc1cccc(C(=O)Nc2ccc(N3CCN(C)CC3)cc2)c1	-0.048%
O=S(=O)(Nc1ccccc1)c1ccc(Oc2ncc(C(F)(F)F)cc2Cl)cc1	-0.721%
O=C(CCN1CCCC1)Nc1cccc(Br)c1	-6.19%
CCOc1ccc(CN(C)C(=O)CCc2ccc(S(=O)(=O)N3CCCCCC3)cc2)cc1	-4.81%
CS(=O)(=O)c1ccc(-c2cn3cc(C(=O)O)ccc3n2)cc1	9.57%
CC1CCCCC1NC(=O)c1ccncc1 (stereo not drawn)	10.7%
CCC(C)[C@H](NS(=O)(=O)c1ccc(C)cc1)C(=O)N1CCC(C(=O)N2CCC(C(=O)OC)CC2)CC1 (stereo partly drawn)	6.12%
Cc1ccc(C(=O)Cn2c3[n+](c4ccccc42)CC(O)CS3)cc1.[Br-] (stereo not drawn)	7%
COc1cccc(NC(=O)COC(=O)c2nc3nccc(C)n3n2)c1	4.77%
CC1=C(C(=O)Nc2ccccn2)C(c2cccnc2)n2nnnc2N1 (stereo not drawn)	11%

SMILES	hERG current change (%, negative = inhibition) at 1uM
Cc1ccc(NC(=O)CN(C)CC(=O)Nc2ccccc2Oc2ccccc2)cc1.O=C(O)C(=O)O	19.4%
O=C(N/N=C/c1ccccc1Cl)C1CC1	5.67%
O=C(Nc1cccc(Cl)c1)OCCN1CCN(Cc2ccccc2)CCC1=O	-4.66%
Cc1[nH]c(C)c(S(=O)(=O)Nc2ccc(OC(F)(F)F)cc2)c1C(=O)N1CCCCC1	-4.47%
COc1ccc(N2C(=O)CC(N3CCN(c4ccc(Cl)cc4)CC3)C2=O)cc1 (stereo not drawn)	8.76%
CCc1ccccc1NC(=S)NCc1cccn1C	14.5%
CCSc1nnc2nc3[nH]c4c(C)cccc4c3nn12	14.8%
COc1cc(CN(C)CC2CCCN(CCc3ccccc3F)C2)cc(Cl)c1OC (stereo not drawn)	-17.2%
O=S(=O)(NCC1COc2ccccc2O1)c1ccc2ccccc2c1 (stereo not drawn)	12.9%
Cc1ccccc1NC(=O)CNc1ccc(Cl)c(C(F)(F)F)c1	16.5%
Cc1cc(C)c2c(C)c(C(=O)NCc3ccc(S(N)(=O)=O)cc3)oc2c1	14.2%
O=C(NCCCN1CCOCC1)C(=O)NCc1ccc(Cl)cc1	9.27%
Cc1cccc(NC(=S)N2CCC(C(N)=O)(N3CCCCC3)CC2)c1C	18.7%
Cc1ccccc1CSc1nnc(-c2ccncc2)n1C	-1.35%
CCCc1cc(=O)[nH]c(SCC(=O)C(C)(C)C)n1	10.1%
CN1C(=O)c2cccc(NCCCCCCN3C(=O)c4ccccc4C3=O)c2C1=O	12.6%
CCNC(=O)NC(=O)C(C)Sc1nc2cc(C(=O)OC)ccc2c(=O)n1-c1ccccc1 (stereo not drawn)	7.8%
C(=N\NCc1ccccc1)/c1ccc2nccnc2c1	7.94%
CC(=O)Oc1ccc(C(=O)[C@H]2[C@H]3C(=O)N(c4ccc(C)cc4C)C(=O)[C@H]3[C@@H]3C=CC=NN32)cc1	9.02%
O=C1OCC(Cn2c3ccccc3c3ccccc32)O1 (stereo not drawn)	-2.67%
CCOC(=O)N1CCN(C(=O)c2ccc(CS(=O)(=O)c3ccccc3OC)o2)CC1	3.47%
CCOc1cc(CNCc2ccccn2)cc(Cl)c1OC.Cl	13.7%
CC1S/C(=N/N=C/c2ccco2)NC1=O (stereo not drawn)	7.15%

SMILES	hERG current change (%, negative = inhibition) at 1uM
CCOC(=O)C1CCN(CC(O)COC(CC)c2ccccc2)CC1.Cl (stereo not drawn)	-17.7%
CCOC(=O)Cc1csc(NC(=O)CSc2nnc(-c3ccncc3)n2Cc2ccco2)n1	7.77%
COc1ccccc1NC(=O)C/C(C)=N/NC(=O)c1ccccn1	15.5%
Cn1c(N)c(C(=O)COC(=O)C2=NNC(=O)CC2)c(=O)n(C)c1=O	18.1%
Cc1ccccc1C(=O)N1CCN(C(c2ccccc2)c2ccccc2)CC1.Cl	12%
COc1ccc(-c2c(-c3ccccc3OC)sc3ccccc23)cc1OC	8.83%
Cc1ccccc1OCC(=O)NNC(=O)C1CCN(c2ncnc3sc(C)c(C)c23)CC1	-1.23%
O=C(O)CCc1nn2c3ccccc3nc2n(-c2ccccc2)c1=O	-0.587%
Cn1c(=O)[nH]c(=O)c2c1nc(Br)n2C/C=N/NC(=O)c1ccccc1	17.2%
Cc1cc(=O)oc2c(C)c(OC(C)C(=O)NCCCN3CCOCC3)ccc12 (stereo not drawn)	7.1%
Cc1ccc(C)c(OCc2nc3ccc(S(=O)(=O)Nc4c(C)n(C)n(-c5ccccc5)c4=O)cc3[nH]2)c1	12.5%
COc1cc(OC)cc(-c2c(-c3cccs3)c3cc(-c4ccc(OC)cc4F)ccc3n2C)c1	17%
[Na+].[S-]c1nnc(-c2ccc(Cl)cc2)n1Cc1ccccc1	21.6%
CN(C)CCCNCCCNC(=O)/C(=N\O)c1ccccn1	1.79%
CC(C)(C)c1ccc(OCC(=O)NNC(=S)NC(=O)c2ccco2)c(Br)c1	8.3%
ClC1(CNc2ccccc2)CCN(Cc2ccccc2)CC1.O=C(O)/C=C\C(=O)O	5.82%
O=C(C1CC(=O)N(c2ccc(Cl)cc2)C1)N1CCCCCC1 (stereo not drawn)	9.09%
CC(C)NC(=O)CN(C)S(=O)(=O)c1ccc(F)cc1	3.03%
O=C(Nc1cc(N2CCCCC2)ncn1)c1ccccc1	6.61%
CCN1CCN(c2cc(C)c3cc(NC(=O)c4ccc5c(c4)OCO5)ccc3n2)CC1	-19.4%
CCS(=O)(=O)N1CCc2cc(OC)c(OC)cc2C1	4.95%
